PubChem BioAssay AID887 (National Center for Advancing Translational Sciences (NCATS), 2007)
Screen size: about 74,000 compounds; about 1,100 (1.5%) were called active. The inconclusive results got no clear call from the source; some entries with a clear call stand among them for comparison. Calls follow the shape of the dose curve; as a rule, active = well fitted inhibition curve with a large enough effect; inconclusive = small, poorly fitted or top-dose-only effect; inactive = no such curve, though single readings can be large or run the other way. Potencies of inconclusive entries are left out as doubtful fits.
% is scaled to controls: 0 for no effect and ±100 for the full control effect; potency is read from the fitted curve at half-maximal effect; tags tell the direction and shape of the fitted curve.
Also: nearly all actives have a fitted effect of over 55% in size.

These compounds were tested against Polyunsaturated fatty acid lipoxygenase ALOX15 (Homo sapiens) (UniProt P16050) (assay: qHTS Assay for Inhibitors of 15-hLO (15-human lipoxygenase)). Details: purified 15hLO-1, xylenol orange hydroperoxide absorbance; activity change, negative = inhibition: at 57.1 µM (top of the series) unless noted.
Chain of UniProt P16050 (P16050 whole entry, looked up): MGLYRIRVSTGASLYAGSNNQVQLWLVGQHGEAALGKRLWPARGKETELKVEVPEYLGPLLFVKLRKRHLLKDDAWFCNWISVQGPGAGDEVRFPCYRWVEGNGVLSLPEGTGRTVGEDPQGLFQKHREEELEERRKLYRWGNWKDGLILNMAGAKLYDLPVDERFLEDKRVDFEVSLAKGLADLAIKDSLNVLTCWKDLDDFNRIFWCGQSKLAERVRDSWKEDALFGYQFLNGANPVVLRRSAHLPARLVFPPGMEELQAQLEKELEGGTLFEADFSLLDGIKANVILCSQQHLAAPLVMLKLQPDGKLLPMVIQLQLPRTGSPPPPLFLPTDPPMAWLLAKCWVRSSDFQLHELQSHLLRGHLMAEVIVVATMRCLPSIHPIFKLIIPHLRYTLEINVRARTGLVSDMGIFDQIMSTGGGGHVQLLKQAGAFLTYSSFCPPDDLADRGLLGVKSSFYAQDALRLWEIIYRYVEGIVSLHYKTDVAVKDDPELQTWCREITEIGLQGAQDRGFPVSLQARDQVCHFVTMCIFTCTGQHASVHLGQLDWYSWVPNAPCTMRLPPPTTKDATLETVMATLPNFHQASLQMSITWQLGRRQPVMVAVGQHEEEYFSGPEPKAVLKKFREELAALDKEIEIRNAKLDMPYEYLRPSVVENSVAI
Summary of the method: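 Purified human 15hLO-1 (40 nM final) in 25 mM Hepes pH 7.5, 0.01% Triton X-100 was preincubated with compound 15 min at room temperature, then reacted 6 min with 50 uM arachidonic acid; hydroperoxide detected by Fe-XO, 573/405 nm absorbance ratio.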
For `Cc1nc2nc(SCC(=O)C(C)(C)C)[nH]c2cc1Br`, the Potency was inconclusive [inhibitor, single point].
For `O=C(Nc1ccc2c(c1)OCO2)N1CCN(c2ncccn2)CC1`, the Potency was “inactive”.
For `CCOC(=O)C(C)Sc1nnc(-c2ccccc2O)n1-c1ccc(C)cc1` (stereo not given), the Potency was inconclusive [inhibitor, full curve].
`C[C@H](N)C1CCC(C(=O)Nc2ccncc2)CC1` (stereo not given in full) was tested, and the Potency was “inactive”.
In the case of `Cc1cc2cc(CNC(=O)CC(C)C)ccc2n1C`, the Potency is reported as inconclusive [inhibitor, single point].
With `C=CCn1c(SCc2c(C)noc2C)nc2cc(C(=O)O)ccc2c1=O` the Potency was inconclusive [inhibitor, single point].
In the case of `C[C@@]12CC[C@@H]3[C@H](CCC4=CC(=O)CC[C@]43C)[C@@H]1CC[C@@H]2C(=O)COS(=O)(=O)c1ccc(Br)cc1`, the Potency is reported as inconclusive [inhibitor, partial curve].
For `COc1ccc2c(c1)c(=O)oc1cc(OCC(=O)N3CCC(C)CC3)ccc12`, the Potency was inconclusive [inhibitor, single point].
For `C=CCSC1=C(C#N)C(c2ccccc2OCC)C(C#N)C(=O)N1` (stereo not given), the Potency was inconclusive [inhibitor, single point].
For `Cc1cccc(Nc2cc(Cl)nc(SCC(=O)O)n2)c1C`, the Potency was inconclusive [inhibitor, single point].
In the case of `Cc1ccc(C)n1-c1cccc(C(=O)O)c1`, the Potency is reported as inconclusive [inhibitor, partial curve].
With `CC(C)CN1CCCC2(CCN(C(=O)c3cc(C(F)(F)F)cc(C(F)(F)F)c3)CC2)C1` the Potency was “inactive”.
For `Nc1nc2ccc(N3CCOCC3)cc2s1`, the Potency was inconclusive [inhibitor, partial curve].
In the case of `CCCCc1nc2ccccc2c(NC(=O)CN2CCN(C)CC2)c1CCC`, the Potency is reported as active: 15.8 µM.
With `Cc1cccc(CNc2ccnc(-c3cccnc3)n2)c1` the Potency was inconclusive [inhibitor, single point].
With `N#CC1=C2SCN(Cc3ccco3)CN2C(=O)CC1c1ccc(Cl)cc1` (stereo not given) the Potency was active: 12.6 µM.
`COc1ccc(-n2c(C)cc(C(=O)CSc3nnc(-c4cccs4)o3)c2C)cc1` was tested, and the Potency was inconclusive [inhibitor, single point].
With `CSC1=C(C#N)C(c2ccccc2C)C(C#N)=C(N)N1` (stereo not given) the Potency was inconclusive [inhibitor, single point].
`CS(=O)(=O)N1CCCC(C(=O)NCc2ccco2)C1` (stereo not given) was tested, and the Potency was inconclusive [inhibitor, single point].
In the case of `Cc1noc(C)c1-c1nccc(N2CCOCC2)n1`, the Potency is reported as inconclusive [inhibitor, single point].
`Cc1cc(=S)[nH]c2ccccc12` was tested, and the Potency was inconclusive [inhibitor, full curve, poor fit].
With `C=CCn1c(SCC(=O)c2ccc(O)c(O)c2)nnc1-c1ccccc1OC` the Potency was inconclusive [inhibitor, partial curve].
In the case of `COc1ccc(CCNC(=O)c2ccc3c(=O)n(Cc4ccco4)c(=S)[nH]c3c2)cc1OC`, the Potency is reported as inconclusive [inhibitor, single point].
For `Cc1cc2cc(CCNC(=O)c3c(-c4ccccc4Cl)noc3C)c(=O)[nH]c2cc1C`, the Potency was inconclusive [inhibitor, partial curve].
With `CC(C)=C[C@H]1[C@@H](COC(=O)c2cc3c(cc2Cl)OCO3)C1(C)C` the activity change, negative = inhibition was inactive: -8.45% [at 11.4 µM].
With `C/C=C\C1=C(CO)C(=O)[C@@H]2OC2C1=O` (stereo not given in full) the Potency was inconclusive [inhibitor, single point].
For `CCOc1ccc(Nc2oc(-c3ccco3)nc2C#N)cc1`, the Potency was inconclusive [inhibitor, partial curve].
In the case of `CC(C)(C)c1csc(NC(=O)Cn2cnc3ccccc3c2=O)n1`, the Potency is reported as inconclusive [inhibitor, partial curve].
With `c1ccc2c(c1)nnn2Cc1nnc2sc(-c3ccc4c(c3)OCCO4)nn12` the Potency was active: 12.6 µM.
In the case of `O=C(c1ccc(N2CCOCC2)nc1)N1CCCCC1`, the Potency is reported as inconclusive [inhibitor, partial curve].
In the case of `CCOC(=O)C1=C(C)Nc2nc(SC)nn2C1c1ccc(C(=O)OC)cc1` (stereo not given), the Potency is reported as “inactive”.
For `CCOC(=O)c1ccc(NC(=O)CSc2nnc(-c3cccs3)n2C)cc1`, the Potency was inconclusive [inhibitor, partial curve].
For `COCCn1nnnc1CN(Cc1cc2cc(OC)c(OC)cc2[nH]c1=O)C1CCCC1`, the Potency was inconclusive [inhibitor, single point].
For `COC(=O)Nc1ccc(S(=O)(=O)N2CCN(c3ccc(F)cc3)CC2)cc1`, the Potency was inconclusive [inhibitor, single point].
In the case of `O=c1c(-c2cccs2)nc2cnc(N3CCNCC3)nc2n1-c1ccccc1`, the Potency is reported as “inactive”.
In the case of `C=CCn1c(SCc2nc3ccccc3c(=O)[nH]2)nnc1-c1cc2cc(Cl)ccc2o1`, the Potency is reported as “inactive”.
`CCOC(=O)c1ccc(-n2c(=S)sc3c(=O)[nH]c(C)nc32)cc1` was tested, and the Potency was active: 10 µM.
In the case of `O=C(Nc1ccc(F)cc1)N1CCN(c2nc3ccccc3s2)CC1`, the Potency is reported as inconclusive [inhibitor, partial curve].
In the case of `COc1ccc(NC(=O)C2CCCN(S(=O)(=O)c3cccc4nonc34)C2)c(OC)c1` (stereo not given), the Potency is reported as inconclusive [inhibitor, partial curve].
For `CCN1CCN(c2cc(=O)n(C3CCCCC3)c(=O)[nH]2)CC1`, the Potency was inconclusive [inhibitor, single point].
With `CCOC(=O)c1ccc2[nH]c3c(c2c1)CN(C)CC3` the Potency was inconclusive [inhibitor, partial curve].
With `Cc1ccc(OCc2nc(C#N)c(NCc3ccco3)o2)cc1` the Potency was “inactive”.
With `CCCC(=O)N1CCN(c2ccc(NC(=O)c3cc4ccccc4o3)cc2)CC1` the Potency was “inactive”.
With `O=C(NCc1ccc(N2CCCC2=O)cc1)Nc1ccccc1` the Potency was “inactive”.
With `O=C(Oc1ccccc1)N1CCC[C@@]2(CCN(c3ncccn3)C2)C1` the Potency was “inactive”.
In the case of `O=C1NCCCC2c3cc(O)c4ccccc4c3OC12N1CCCCC1` (stereo not given), the Potency is reported as inconclusive [inhibitor, single point].
`COc1ccc(CNc2ccnc(-c3c(C)noc3C)n2)c(OC)c1` was tested, and the Potency was active: 25.1 µM.
With `COC(=O)c1ccc(NC(=O)c2cnc3scc(C)n3c2=O)cc1` the Potency was “inactive”.
In the case of `COc1ccccc1-c1nc(NCc2cccs2)c2ccccc2n1`, the Potency is reported as inconclusive [inhibitor, single point].
With `CCOC(=O)N1CCN(CC(=O)c2ccc3c(c2)CCN3)CC1` the Potency was inconclusive [inhibitor, single point].
In the case of `Cc1cccc(-c2nnc(SCc3nc4ccccc4[nH]3)n2Cc2ccco2)c1`, the Potency is reported as “inactive”.
With `CCC(C)(C(=O)NC1CCCC1)N(Cc1ccco1)C(=O)c1ccccn1` (stereo not given) the Potency was “inactive”.
With `O=C(O)c1cc(O)c2c(c1)[C@H]([C@H]1c3cc(C(=O)O)cc(O)c3C(=O)c3c(O[C@@H]4OC(CO)C(O)C(O)C4O)cccc31)c1cccc(O[C@@H]3OC(CO)C(O)C(O)C3O)c1C2=O` (stereo not given in full) the Potency was active: 12.6 µM.
For `CCOC(=O)c1cc2c(=O)n3ccccc3nc2n(CCOC)c1=NC(=O)C(C)(C)C`, the Potency was “inactive”.
With `CC(C)CN(C(=O)COC(=O)c1cc2c(s1)CCC2)C1CCS(=O)(=O)C1` (stereo not given) the Potency was inconclusive [inhibitor, full curve, poor fit].
`Cn1cccc1Cc1nnc(SCC(=O)NCCc2ccccc2)n1-c1ccc(F)cc1` was tested, and the Potency was inconclusive [inhibitor, single point].
In the case of `COc1cc(CNc2ccc3[nH]c(=O)[nH]c3c2)ccc1OCC(=O)NC(C)(C)C`, the Potency is reported as active: 25.1 µM.
In the case of `c1cncc(-c2cc(-n3ccnc3)ncn2)c1`, the Potency is reported as inconclusive [inhibitor, partial curve].
In the case of `COc1ccccc1-c1nc(NCc2cnc(C)cn2)c2ccccc2n1`, the Potency is reported as active: 15.8 µM.
For `Cc1ccc(-c2cc(C(=O)N3CCN(c4ncccn4)CC3)c3ccccc3n2)cc1`, the Potency was inconclusive [inhibitor, single point].
In the case of `Cc1cc(C)nc(-n2nc(C)cc2NC(=O)CN2CCC(C)CC2)n1`, the Potency is reported as “inactive”.
With `CCCCN1CCc2c([nH]c3c(C)cccc23)C1=O` the Potency was inconclusive [inhibitor, single point].
For `COc1cccc(CNC(=O)Nc2cccs2)c1`, the Potency was inconclusive [inhibitor, partial curve].
`Cc1ccc(O)c(Sc2cc(C)ccc2O)c1` was tested, and the Potency was inconclusive [inhibitor, partial curve].
`COc1ccc(-c2cc(C(F)(F)F)nc(NCc3ccco3)n2)cc1OC` was tested, and the Potency was inconclusive [inhibitor, full curve].
For `CO[C@@H]1COC(=O)C/C=C\[C@@H](C)[C@H](OC)COC(=O)[C@@H](C)COC(=O)C/C=C\[C@H]1C`, the activity change, negative = inhibition was inactive: 4.58% [at 11.4 µM].
In the case of `Cc1cc(-c2ccc(N=Nc3ccc4c(S(=O)(=O)O)cc(S(=O)(=O)O)c(N)c4c3O)c(C)c2)ccc1N=Nc1ccc2c(S(=O)(=O)O)cc(S(=O)(=O)O)c(N)c2c1O`, the Potency is reported as inconclusive [inhibitor, full curve].
With `CCn1c(CCC(=O)Nc2nc3c(s2)CCCC3)nc2cc(S(=O)(=O)N(C)C)ccc21` the Potency was inconclusive [inhibitor, single point].
In the case of `CCN1CCN(Cc2ccc(NC(=O)Nc3ccccc3OC)cc2)CC1`, the Potency is reported as active: 3.16 µM.
With `COc1ccc2c(c1OC)C(Cc1ccccc1)N1CCc3cc4c(cc3C1=C2)OCO4` (stereo not given) the Potency was inconclusive [inhibitor, partial curve, poor fit].
